# According to PubChem BioAssay AID1240 (Sanford-Burnham Center for Chemical Genomics, 2008):
# Out of some 50,000 compounds screened, about 800 (1.6%) showed an effect of 50% or more. Some of the results follow.
# Target: Bcl-2-like protein 10 (Homo sapiens) (UniProt Q9HD36)
# Assay: Phenotype converters, Bcl-B/TR3 peptide binding displacement, primary biochemical FP (AID 1240);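 also: 0% = Bcl-B with tracer peptide and DMSO and 100% = tracer peptide lacking Bcl-B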
# Details: GST-Bcl-B / FITC-TR3 peptide fluorescence polarization; stronger effect = higher value; compound at 3.75 mg/L
# UniProt Q9HD36, sequence (Q9HD36 whole entry, looked up): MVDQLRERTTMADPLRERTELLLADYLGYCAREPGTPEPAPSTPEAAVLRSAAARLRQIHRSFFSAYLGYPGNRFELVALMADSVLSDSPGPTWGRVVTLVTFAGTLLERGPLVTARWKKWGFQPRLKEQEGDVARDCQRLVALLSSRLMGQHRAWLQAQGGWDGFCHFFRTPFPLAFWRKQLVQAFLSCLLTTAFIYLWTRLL
row,SMILES,displacement
1,COc1cc(OC)c([N+](=O)[O-])cc1/C=C1\C=C(c2ccc(Br)cc2)OC1=O,49.1%
2,C/C(=N\NC(=O)c1cc2ccccc2cc1O)c1ccco1,10%
3,Cc1ccc(NC2CC(C)N(C(=O)c3ccc(F)cc3)c3ccc(C)cc32)cc1 (configuration not stated),-3.3%
4,O=C(O)c1ccc(S(=O)(=O)c2ccc3c(c2)C(=O)N(c2ccccc2[N+](=O)[O-])C3=O)cc1,2.2%
5,CCOC(=O)C1=NNC(C(=O)OCC)(C(=O)OCC)C1c1ccccc1 (configuration not stated),-2.6%
6,Cc1ccc(SCC(=O)Nc2ccccc2Br)cc1,8.5%
7,O=C(Nc1ccc(Cl)c([N+](=O)[O-])c1)C1CC2CCC1C2 (configuration not stated),4.4%
8,Cc1cc2c(cc1C)N(C(=O)CSc1nc3ccccc3o1)C(C)(C)c1ssc(=S)c1-2,2.7%
9,COc1ccc(CCNC(=O)c2cccc([N+](=O)[O-])c2)cc1,-10.8%
10,O=C(Nc1cccc(Cl)c1)Nc1nnc(-c2ccccc2F)s1,2.8%
11,O=C(CCCN1C(=O)/C(=C\c2ccc(F)cc2)SC1=S)Nc1cc([N+](=O)[O-])ccc1O,114%
12,CC(C)(C)NCCOc1ccc(Cl)cc1,15.6%
13,CN(Cc1ccccc1)C(=O)c1cc(Cl)ccc1Cl,12.7%
14,COc1ccc(CN(CCC(c2ccc(OC)cc2)C2CCOC(C)(C)C2)C(C)=O)cc1 (configuration not stated),-6.3%
15,OCCSc1nncn1/N=C/c1c[nH]c2ccccc12,0.4%
16,CCCOc1ccc(N/C=C/C(=O)c2ccc(Br)cc2)cc1,-8.3%
17,COc1ccc(C(=O)NC(C)Cc2ccccc2)cc1OC (configuration not stated),-9.3%
18,Nc1ccccc1-c1nc2ccccc2c2nc3ccccc3n12,-5.9%
19,O=C(/C=C/c1cccc2ccccc12)c1ccncc1,-6.2%
20,Cc1cc(/C=C2\SC(=S)NC2=O)c(C)n1-c1cccc([N+](=O)[O-])c1,7.1%
21,COc1cc(C(=O)NN2C(=O)/C(=C/c3ccc(N(C)C)cc3)SC2=S)ccc1O,-56.7%
22,CCC(C)NC(=O)c1c(Cl)ccc(Cl)c1OC (configuration not stated),-2.8%

row,SMILES,displacement
1,O=C/C(=C\Nc1c2ccccc2nc2ccccc12)c1nc2cc(Cl)ccc2o1,11.1%
2,C#CCOc1ccc(/C=C2\C(=O)NC(=O)N(c3ccc(Cl)cc3)C2=O)cc1,0%
3,Cc1onc(-c2c(F)cccc2Cl)c1C(=O)NCc1ccccn1,-5.5%
4,Cc1ccc(-c2cc(C(=O)N/N=C/c3cccs3)[nH]n2)cc1,-10.1%
5,Oc1ccccc1C(=S)N1N=C(c2ccccc2)CC1(O)C(F)(F)F (configuration not stated),21.7%
6,O=C(Nc1nc(-c2ccc(Cl)cc2)cs1)C(F)(F)F,14%
7,CCOC(=O)c1ccc(NC(=O)C2CC(=O)N(c3ccc(Br)cc3)C2)cc1 (configuration not stated),-2.3%
8,CN(C(=O)c1ccc(C(=O)N(C)c2ccc(O)cc2)cc1)c1ccc(O)cc1,5.7%
9,CC(=O)CCc1oc2ccccc2c1-c1ccc(C)o1,-3.7%
10,CN1C(=O)/C(=C\c2ccc(OCc3cccc4ccccc34)cc2)SC1=S,-0.8%
11,CC(=O)Oc1ccccc1-c1nc2s/c(=C/c3ccco3)c(=O)n2n1,13.1%
12,COc1cc(C2C(C(C)=O)=C(O)C(=O)N2CCN(C)C)ccc1O (configuration not stated),-6.1%
13,O=C(CSc1nc(-c2ccccc2)c(-c2ccccc2)o1)Nc1nccs1,106%
14,CCC1CCc2c(sc(NC(=O)c3cnccn3)c2C(N)=O)C1 (configuration not stated),-16.3%
15,CCOC(=O)Cc1nnc(NCc2ccccc2)c2ccccc12,3%
16,O=C(Cc1ccccc1)Nc1ccccc1C(=O)N1CCN(Cc2ccccc2)CC1,4.8%
17,O=c1[nH]cnc2c1cnn2CCOc1ccccc1,-0.6%
18,Cc1ccc(NC(=O)c2cccc(C)c2)nc1,-1.3%
19,CC(=O)Nc1ncc(Cc2ccc(F)cc2)s1,6.6%
20,COc1cc(C(C)(C)C)cc(Br)c1O,2%
21,COc1ccc(-n2c(CN3C(=O)c4ccccc4C3=O)nc3ccccc3c2=O)cc1,-3.7%
22,COc1ccc(CC(=O)Nc2cccc(NC(=O)c3cccc(Cl)c3)c2)cc1OC,-0.7%

row,SMILES,displacement
1,COc1cccc(OCCOc2ccc(/C=C3/SC(=S)N(c4ccccc4)C3=O)cc2)c1,1.9%
2,CC(=O)Oc1ccc(C(=O)Nc2ccc(C)cc2C(=O)O)cc1,7%
3,O=C(NCCO)C(=O)NCCc1ccccc1,7.8%
4,Cc1ccc2nc(NCc3ccccc3)nc(-c3ccccc3)c2c1,-0.2%
5,CCOc1cc(/C=C2/SC(=S)N(C)C2=O)ccc1OCc1cccc2ccccc12,-6.7%
6,C(=N\Nc1nc(N2CCOCC2)nc(N2CCOCC2)n1)/c1ccccc1OCc1ccccc1,-0.9%
7,COC(=O)c1ccccc1NC(=O)CN(c1cccc(Cl)c1)S(C)(=O)=O,5.5%
8,O=C(N/N=C/c1ccc(Cl)cc1)c1cc(-c2ccc3ccccc3c2)n[nH]1,-5.4%
9,CC(=O)Nc1ccc(S(=O)(=O)Nc2cccc(C)c2C)cc1,12.9%
10,C=CCc1cc(/C=C2\C(=O)NC(=O)N(c3cc(C)cc(C)c3)C2=O)cc(OC)c1OC,-11.9%
11,COc1cccc(CN2CCN(Cc3ccccn3)CC2)c1OC,-2.1%
12,COc1ccc(C2CC(C(F)(F)F)n3nc(C(=O)N4CCN(c5ccc(F)cc5)CC4)c(Cl)c3N2)cc1 (configuration not stated),17.2%
13,COc1cc(NC(=O)CCC(=O)O)nc(OC)n1,3.7%
14,NS(=O)(=O)c1cccc(S(=O)(=O)c2cccc(S(N)(=O)=O)c2)c1,-12.7%
15,CCC1=NN(C(=O)c2ccc(Cl)cc2)C(O)(c2ccc(Br)cc2)C1 (configuration not stated),9.1%
16,CCOC(=O)C1=C(c2ccccc2)OC(N)=C(C#N)C1c1cccs1 (configuration not stated),8.7%
17,COc1ccc2c(c1)c(=O)oc1c(C)c(OC(C)=O)ccc12,-7.1%
18,O=C(Nc1ccccn1)c1ccc(CN(c2ccccc2)S(=O)(=O)c2ccccc2)cc1,-4.3%
19,O=C(c1nn2c(C(F)(F)F)cc(-c3ccco3)nc2c1Cl)N1CCOCC1,10.6%
20,Cc1cc(/C=N/NC(=O)Cc2cccc(C(F)(F)F)c2)c(C)n1-c1cccc(C(=O)O)c1,-4.6%
21,NC(=O)C1CCN(C(=O)c2cccc(I)c2)CC1,7.3%
22,COC(=O)C1=NNC2(C)C(=O)N(c3ccccc3Cl)C(=O)C12 (configuration not stated),-9.7%

row,SMILES,displacement
1,CCOC(=O)C1=C(C)N=c2s/c(=C\c3ccc(C(C)=O)cc3)c(=O)n2C1c1ccccc1 (configuration not stated),76.2%
2,Clc1ccccc1-c1nc2ccccc2c2nc3ccccc3n12,9.7%
3,CC1(C)CC(=O)C(/C=N/c2ncc(C(F)(F)F)cc2Cl)=C(O)C1,-1.7%
4,CC(COc1ccccc1)NC(=O)c1nn2c(C(F)(F)F)cc(-c3ccccc3)nc2c1Br (configuration not stated),14.1%
5,CC1(C)C(=O)NC(=O)N1CN1C(=O)NC(=O)C1(C)C,-0.9%
6,CCc1cc(C)cc(OCCOc2ccccc2/C=N/n2cnnc2)c1,0%
7,COC(=O)c1ccc(N2C(=O)CC(Sc3n[nH]c(C)n3)C2=O)cc1 (configuration not stated),-6%
8,COC(=O)c1c(NC(=O)COc2ccc(C)cc2C)sc2c1C(C(=O)OC)CC2 (configuration not stated),15.4%
9,CN(C)c1cccc2c(C(NS(=O)(=O)c3ccccc3)C(Cl)(Cl)Cl)ccc(N(C)C)c12 (configuration not stated),144%
10,O=C(Nc1ccc(OC(F)(F)C(F)F)cc1)C(c1ccccc1)c1ccccc1,-15.8%
11,CCOC(=O)c1ccc(NC(=O)/C(C#N)=C2\NC(C)(C)Cc3ccccc32)cc1,-2.1%
12,CC1(C)C(c2ccccc2)=NC(c2ccccc2O)N1O (configuration not stated),-3.2%
13,Cc1ccccc1N1OC2C(=O)N(c3ccccc3)C(=O)C2C1c1cccs1 (configuration not stated),5.7%
14,O=C(Nc1ccc(Cl)cc1)c1cc2n(n1)C(C(F)(F)F)CC(c1ccco1)N2 (configuration not stated),6.7%
15,CCc1nnc(NC(=O)C2CCCO2)s1 (configuration not stated),-0.3%
16,O=C(C[n+]1ccccc1)OCC12CC3CC(CC(C3)C1)C2,14.4%
17,O=C(O)CN1C(=O)/C(=C\c2cccc(OC(=O)c3ccco3)c2)SC1=S,8.8%
18,Cc1no[n+]([O-])c1COc1ccc(/C=C(\C#N)C(N)=O)cc1,-1.7%
19,CC1(C)CC(=O)c2cc(C(=O)NCCO)c(=O)n(-c3ccccc3)c2C1,12%
20,CCOC(=O)c1cnc2cc(-c3ccc(Cl)cc3)nn2c1C,-9%
21,O=C(COc1ccccc1[N+](=O)[O-])Nc1ccc(N2CCOCC2)cc1,9.6%
22,CCCCOC(=O)c1ccc(NC(=O)CSc2nnc(-c3ccco3)n2-c2ccccc2)cc1,-12.3%

row,SMILES,displacement
1,COc1ccc(OC)c(NC(=O)C2C3C=CC(C3)C2C(=O)O)c1 (configuration not stated),7.5%
2,CN1C(=O)/C(=C/c2ccc(-c3ccc(C(=O)O)cc3)o2)SC1=S,1.6%
3,CCNC(=O)c1ccc(CN2CCN(c3ccccc3)CC2)cc1,8.2%
4,O=C(N/C(=C/c1ccc(Br)cc1)c1nc2ccccc2[nH]1)c1ccccc1,3.2%
5,Cc1cc(/C=C2/SC(=O)NC2=O)c(C)n1-c1ccc(F)cc1,14.1%
6,CCC(C)c1ccc(OCc2nnc(NC(=O)Nc3ccccc3)s2)cc1 (configuration not stated),2.3%
7,CCOC(=O)c1c(NC(=O)/C=C/c2ccccc2)sc(C(C)=O)c1C,0%
8,O=C(NCCOc1ccccc1F)c1ccc(Cl)cc1Cl,-7.2%
9,O=C(NCCN1CCOCC1)/C(=C/c1ccccc1)NC(=O)c1ccccc1,5.2%
10,Cc1cccc(CN2CCN(C3CCCC3)CC2)c1,-2.2%
11,COc1ccc(/C(N)=N/OC(=O)Cc2ccc(OC)c(OC)c2)cc1,9.9%
12,O=C(COc1ccc2cc(-c3nc4ccccc4s3)c(=O)oc2c1)OCc1ccccc1,53.3%
13,O=[N+]([O-])c1ccc(O)c(-c2cc(C(F)(F)F)nc(-c3ccccc3)n2)c1,8.4%
14,CN1CCN(Cn2c(O)c(N=NC(=O)c3ccccc3Cl)c3ccccc32)CC1,-6.5%
15,Oc1ccc(Br)cc1C=NCc1ccco1,3.3%
16,CCOc1ccc(NC(=O)/C(=C\c2ccco2)NC(=O)c2ccc(C)cc2)cc1,16.9%
17,N#CCCn1c(=S)oc2ccccc21,-9.3%
18,O=c1[nH]c2ccc(Cl)cc2c(-c2ccccc2)c1C1=NOC(c2ccccc2)C1 (configuration not stated),12.6%
19,Cc1[nH]n(-c2ccccc2)c(=O)c1C(c1ccccc1C(F)(F)F)c1c(C)[nH]n(-c2ccccc2)c1=O,-4.5%
